Laboratory results from patent US4550113A (priority 1984, dated 1985).

Tests used:
[1] = test system: potassium channels of the membrane; experiment: blocking of potassium currents in an electroexcitable membrane; type: cell-based; conditions: for inhibition of K^+ current upon prolonging the test voltage pulse: pulse prolonged from 10 msec to 1 sec
Source text: This effect is characteristic of a known inhibitor of potassium channels of the membrane--4-aminopyridine.

[2] = type: physicochemical
Procedure: 1-Amino-2-cyanocyclopentene-1, cyclohexanone, polyphosphoric acid and dry benzene are stirred upon boiling for two hours. After cooling the reaction mass is diluted with water and extracted with ether. The ethereal extract is discarded. The aqueous layer is neutralized to the pH of 7. The precipitate is filtered-off and several times washed with water on the filter. After separation of the precipitate the aqueous layer is combined with the washings and alkalinized with ammonia to a pH of 9-10. The resulting precipitate of 9-amino-2,3,5,6,7,8-hexahydro-1H-cyclopenta(b)quinoline is filtered-off and washed, then dissolved in 20 ml of ethanol and the ethanolic solution is treated by passing therein gaseous hydrogen chloride at a temperature within the range of from 5° to 25° C. to a pH of 3. The thus-obtained salt is precipitated by ethyl ether, the precipitate is reprecipitated from ethanol by ether.

rabbits = experiment: tubocurarine head drop in rabbits (anticuraric effect); type: in vivo; conditions: intravenously 1.3, 2.6, 5.2 mg/kg after tubocurarine […] i.v.
Procedure: Tubocurarine in a dose of 0.25 mg/kg administered intravenously results in head drop in rabbits due to blocking of neuro-muscular transmission. […] The anticuraric effect lasts 30 to 40 minutes.

[3] = test system: mice, rats, rabbits and dogs
[4] = test system: neuro-muscular synapses (n.peroneusm.extensor digitorumlongus); experiment: miniature end plate potentials on neuro-muscular synapses; set-up: species or system mice
Procedure: The effect on miniature end plate potentials (EPP) has been studied on neuro-muscular synapses (n.peroneusm.extensor digitorumlongus).
The following parameters of the end plate potentials are measured: frequency (f), amplitude (A) and duration (t).
In the control preparations the parameters of miniature end plate potentials are as follows: f=3.0 l/sec, A=0.6 mV, t=0.3 msec.

musculus gastrocnemius = experiment: rabbit's sciatic nerve (in situ), contractions of musculus gastrocnemius; type: in vivo
Source text: (§1) Thus, there has been studied the effect of the medicated composition of the present invention on neuro-muscular transmission in experiments on a rat's phrenico-diaphragmatic preparation, musculus rectus abdominis of the frog, and rabbit's sciatic nerve.

acute toxicity in mice = conditions: mouse, in vivo
[5] = target: T1, serum butyrylcholinesterase (BuCE) (Homo sapiens, UniProt P06276); experiment: inhibition of purified serum butyrylcholinesterase; type: biochemical; conditions: for Ki: read-out: inhibition constant Ki relative to BuCE
T1 construct: serum butyrylcholinesterase (BuCE); from tissue

patients [6] = experiment: clinical efficiency in patients
[7] = test system: musculus rectus of a frog's abdomen; experiment: acetylcholine contraction of musculus rectus abdominis of the frog; conditions: for enhancement of the effect of acetylcholine compared with the composition: same conditions
Procedure: as §1
The cut musculus rectus of a frog's abdomen is placed into a vessel with Ringer solution (pH=7.4) through which air is passed. The muscle contractions are recorded by a strain gauge. […] The effect occurs within 10-15 minutes and slowly diminishes upon the removal of the composition from the solution. 25 minutes after the removal the response to acetylcholine is still equal to 150% vs. the control value.

rat's sciatic nerve = experiment: conductivity of excitation in rat's sciatic nerve blocked with KCl; conditions: 1.10^-5 to 1.10^-7 M; KCl 5.10^-5 M
Source text: Pulses are passed through a stimulant electrode and the second recording electrode registers the nerve action potentials in response to excitations.
The composition is applied in a concentration of from 1.10^-5 to 1.10^-7 M onto a limited length of the nerve between the electrodes. KCl in a concentration of 5.10^-5 M causes blocking of the conductivity.

acute toxicity in rats = conditions: rat, in vivo, sc, hypodermally
[8] = carcinogenic, mutagenous, teratogenous, embryotoxic effects
mice [9] = experiment: lethal dose of d-tubocurarine in mice, with and without pre-administration of the composition; type: in vivo; conditions: test group
Procedure: (§2) It lowers toxicity of the latter. Thus, in experiments on mice there are determined medium lethal doses of d-tubocurarine in control and test groups which have been previously administered with the medicated composition of the present invention.

[10] = test system: rat's phrenico-diaphragmatic preparation; experiment: neuro-muscular transmission, rat's phrenico-diaphragmatic preparation; conditions: for activation at 0.1 µM: Rattus norvegicus, read-out: increase in the amplitude of the diaphragm contractions
Procedure: as §1
Experiments are carried out on phrenico-diaphragmal preparations obtained from male rats weighing 200 g. From the diaphragm two muscular strips are cut of 5-8 mm width with appropriate nerves of 20 mm length. The preparation is placed into a bath with an aerated Tyrode solution with a double content of glucose at a temperature of 20° C., and the pH of the solution is brought to 7.3. The nerve is placed on two silver electrodes through which the muscle preparation is stimulated.
The stimulation parameters are square pulses with a duration of 1 msec, groups of 10 pulses with an interval of 2 seconds therebetween and 1 minute intervals between the groups at a voltage of 12-15 V.

rats = experiment: training of rats in a T-shaped labyrinth; type: in vivo
[11] = test system: uterus, vas deferens and the intestine of rats; experiment: contractile activity of smooth-muscle strips (uterus, vas deferens, intestine)
Procedure: Animals are slaughtered by decapitation, the peritoneal cavity is opened, the smooth-muscle organ is cut out and transferred into a vessel containing a physiological solution. A strip of 15×2 mm is cut from the organ, silk threads are secured to the strip ends and the muscle preparation is placed into a testing unit chamber. The contractile activity of the muscle is recorded under isometric conditions by means of a tensometer. The muscle is in a continuous flow of an aerated physiological solution. Spontaneous contractions are recorded and contractive responses to agonists (acetylcholine, oxytocin, adrenalin, serotonine, histamine, KCl).

patients [12] = experiment: clinical tolerance and side effects in patients; type: in vivo, human
Source text: It very rarely causes signs of M-cholinergic structures: intensified peristaltic of intestine, vomition, salivation (6 patients--1.8%). […] In 4 patients (1.2% there was noted bradicardia, in 2--increase of arterial pressure (passing)--0.6%, in 4 patients (1.2%)--allergic dermal eruption rapidly disappearing after completion of the treatment course. Low frequency and weak manifestation of side effects, good tolerance of the preparation enable a broad variation of its single and daily doses and, when required, to considerably increase the same.

[13] = lethal dose of d-tubocurarine in mice, with and without pre-administration of the composition; type: in vivo; conditions: mouse, in vivo, control group
Procedure: as §2

mice [14] = conditions: subcutaneously injected in mice; cited from earlier work
[15] = hypodermally injected; cited from earlier work

SMILES: Nc1ccncc1 [4-aminopyridine, reference compound]
- inhibition of K^+ current upon prolonging the test voltage pulse [1]: disappears

SMILES: Cl.Nc1c2c(nc3c1CCC3)CCCC2.O [9-amino-2,3,5,6,7,8-hexahydro-1H-cyclopenta(b)quinoline monohydrate hydrochloride]
- solubility in 95% ethanol [2]: slowly soluble
- solubility in acetone, ether, chloroform [2]: substantially insoluble
- solubility in diluted solutions of acids [2]: readily soluble
- solubility in water [2]: readily soluble
- effect on tubocurarine head drop (rabbits): recovery of the muscular tension
- signs observed ([3]; higher doses): excitation of animals, tremor, signs of stimulation of M-cholinergic systems: hypersalivation, hyperperspiration, and diarrhea
- combination with apomorphine, phenamine and L-DOFA ([3]; in vivo): enhanced by the composition of the present invention only in high doses
- combination with arecoline ([3]; in vivo): potentiates the effects of arecoline
- effect on animal behavior ([3]; in vivo): does not change the animal behavior
- effect on the central nervous system ([3]; in vivo): stimulating effect on the central nervous system
- signs observed ([3]; toxic doses): convulsions are developed
- time after addition within which the effect on miniature EPP is detected [4]: ≤ 30 min
- miniature end plate potentials amplitude (A) ([4]; concentration 10^-6 M): 1.2 mV
- miniature end plate potentials frequency (f) ([4]; concentration 10^-6 M): 3.0 L/s
- increase of the amplitude of contractions of the musculus gastrocnemius (musculus gastrocnemius; in response to the addition of acetylcholine): 50-78%
- duration of the effect (musculus gastrocnemius; rabbit, in vivo): still observed one hour after addition
- LD50 (acute toxicity in mice; ip, single intraperitoneal administration): 44 mg/kg
- LD50 (acute toxicity in mice; po, per os): 68 mg/kg
- LD50 (acute toxicity in mice; sc, hypodermally): 52 mg/kg
- manner of inhibition of BuCE [5]: non-competitive manner
- Ki [5]: 5.6 nM
- effect on weak delivering activity (patients [6]; administration of 10 mg): 96%
- time after administration to increasing contractive activity of uterus (patients [6]; administration of 10 mg): 10 min
- improvement (patients [6]; disseminated sclerosis): 60%
- improvement (patients [6]; myastenia): 92%
- improvement (patients [6]; patients with neuritides and polyneuritides of infectional and traumatic etiology, subcutaneous): 88%
- improvement (patients [6]; radiculoneuritides of the discogenous origin): 62%
- time within which the effect occurs [7]: 10 to 15 min
- response to acetylcholine vs. the control value after removal ([7]; 25 minutes after the removal): 150%
- acetylcholine contraction superior to the control ([7]; acetylcholine 1.10^-6 M, preparation 1.10^-7 to 1.10^-6 M): 180%
- effect on KCl blocking of nerve conductivity (rat's sciatic nerve): removes this blocking and restores the conductivity of the nerve
- LD50 (acute toxicity in rats): 60 mg/kg
- allergogenic effect (allergogenic activity): no allergogenic effect
- carcinogenic, mutagenous, teratogenous or embryotoxic effects [8]: neither carcinogenic, mutagenous, teratogenous or embryotoxic effects
- LD50 of d-tubocurarine after previous administration of the composition (mice [9]): 0.69 mg/kg
- effect on the membrane potential without fixation of the potential [1]: pronounced extension of the potential of the membrane effect
- blocking of potassium currents ([1]; concentration 1.10^-6 to 1.10^-5 M): 50-70%
- inhibition of K^+ current upon prolonging the test voltage pulse [1]: fully retained
- activation at 0.1 µM [10]: 74 to 80%
- contraction still increased after washing-off ([10]; one hour after the washing-off): 25%
- training in a T-shaped labyrinth (rats): facilitates training
- stimulating effect detected after removal from the solution [11]: ≥ 40 min
- effect on contractive responses to agonists (acetylcholine, oxytocin, adrenalin, serotonine, histamine, KCl) ([11]; rat smooth-muscle strips): increases the amplitude of contractions in response to all agonists, except K^+
- patients with bradicardia (patients [12]; human, in vivo): 1.2%
- patients with allergic dermal eruption (patients [12]; rapidly disappearing after completion of the treatment course): 1.2%

SMILES: COc1cc2c3cc1Oc1cc(ccc1O)C[C@@H]1c4c(cc(OC)c(O)c4Oc4ccc(cc4)C[C@@H]3N(C)CC2)CC[N+]1(C)C [d-tubocurarine, reference compound]
- LD50 [13]: 0.29 mg/kg

SMILES: COc1ccc2c3c1O[C@H]1C[C@@H](O)C=C[C@@]31CCN(C)C2 [galantamine, reference compound]
- enhancement of the effect of acetylcholine compared with the composition [7]: less pronounced and shorter enhancement
- LD50 (mice [14]): 14 mg/kg
- activation at 0.1 µM [10]: 28%
- time after beginning of washing at which effect disappears ([10]; similar concentration (1.10^-7 M)): 20 min
- M-cholinergic disturbances compared with proserin (patients [12]; human, in vivo): to a lesser extent

SMILES: CN(C)C(=O)Oc1cccc([N+](C)(C)C)c1 [proserin, reference compound]
- Ki [5]: 150 nM
- enhancement of the effect of acetylcholine compared with the composition [7]: less pronounced and shorter enhancement
- LD50 [15]: 0.4 mg/kg
- patients with signs of M-cholinergic structures: intensified peristaltic of intestine, vomition, salivation (patients [12]; human, in vivo): 50%

Like-named read-outs stand apart in the source and are kept apart here.
